From the supplement of paper PMC3334620
In all, about 33,000 sequences were measured (“E-score (-0.5 to 0.5)”: median about -0.036, highest 2% from about 0.37 on). Some of the results follow.

What follows are sequences tested against T1, Yer064c (UniProt P40041) (assay: PBM E-score (8-mer binding enrichment) (E-score (-0.5 to 0.5)); higher = stronger / more preferred TF binding; most listed sequences are background and not binding sites). Details: protein concentration: 200 nM; construct: GST-full length.
T1 sequence: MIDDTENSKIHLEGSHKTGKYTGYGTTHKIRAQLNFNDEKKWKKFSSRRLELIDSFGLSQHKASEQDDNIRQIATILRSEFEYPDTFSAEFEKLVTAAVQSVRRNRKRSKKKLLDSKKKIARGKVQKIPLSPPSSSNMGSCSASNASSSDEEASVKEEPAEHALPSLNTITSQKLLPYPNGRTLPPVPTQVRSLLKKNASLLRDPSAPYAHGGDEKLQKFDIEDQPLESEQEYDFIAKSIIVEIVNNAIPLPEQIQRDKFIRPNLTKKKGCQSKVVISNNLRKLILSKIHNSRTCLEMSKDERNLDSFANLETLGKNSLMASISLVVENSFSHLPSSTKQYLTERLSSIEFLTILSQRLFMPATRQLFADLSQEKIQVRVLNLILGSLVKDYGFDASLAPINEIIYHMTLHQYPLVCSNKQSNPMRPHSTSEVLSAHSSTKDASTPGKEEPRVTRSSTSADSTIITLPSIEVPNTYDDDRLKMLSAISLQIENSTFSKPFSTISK
Outline: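 Masliner-normalised scans of fluorescent anti-GST signal were the basis for scoring. That signal came from GST-tagged yeast transcription factors applied at about 100-200 nM to double-stranded universal all-10-mer Agilent arrays on fresh or once-stripped slides. Each ungapped eight-base word, pooled with its reverse complement, received an E-score from the Universal PBM Analysis Suite.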

| Sequence | PBM E-score |
| --- | --- |
| ACGGATCC | -0.152 |
| CAATGTGC | -0.09 |
| GATATGCA | -0.0494 |
| ATGATCGA | 0.0635 |
| GTCTGGAA | 0.0106 |
| GACGTTAC | -0.00375 |
| AAGGAGCG | -0.22 |
| ATTATGCC | -0.113 |
| CAGACATG | -0.117 |
| AGCTACCC | -0.123 |
| ACAACCGA | -0.164 |
| CGACCGTC | -0.244 |
| AATTCACT | 0.00494 |
| AGCGCGCG | -0.0301 |
| ATCCTCAC | -0.00551 |
| ATTGAAGA | 0.181 |
| AAACCTCG | -0.0783 |
| ACAGTCCT | 0.174 |
| AGTGAGAA | 0.0887 |
| AGTACCAT | 0.0281 |
| GCTCGCTA | -0.152 |
| ATAGGAGG | -0.229 |
| TGGAATAA | -0.0112 |
| TTACCCAA | 0.0875 |
| ACCACACT | -0.021 |

| Sequence | PBM E-score |
| --- | --- |
| CGGTATCC | -0.344 |
| ATAAATAT | 0.138 |
| CTGAGGGC | -0.263 |
| ATAATTGA | 0.226 |
| GACGAAGA | 0.0944 |
| CCCTCGCG | -0.215 |
| TAGTGCGA | -0.0974 |
| TAGCTTGA | -0.013 |
| CGTGTAAC | 0.0306 |
| ATCCCTCC | -0.191 |
| TCGCACCA | 0.0562 |
| GAGATTAC | 0.178 |
| CGCACGGA | -0.14 |
| CTACACCC | -0.128 |
| CGGTCGCC | -0.157 |
| GCGGCCAC | -0.257 |
| CTAGTTTC | 0.0667 |
| TCCCCGGA | -0.0933 |
| GAACCGCC | 0.0299 |
| CAGGGGAA | -0.185 |
| CGTTCGCC | -0.168 |
| CGTAAGGC | -0.102 |
| ACAGTGCC | -0.218 |
| ACCTCGGC | -0.153 |
| ACTTGTAG | 0.053 |

| Sequence | PBM E-score |
| --- | --- |
| GACTTAGC | 0.292 |
| TCCTCGAA | 0.0745 |
| GAAAATTC | -0.154 |
| ATCCGCAC | 0.00267 |
| ATCTTGCC | -0.164 |
| AGACGCAT | -0.109 |
| CCATAAAG | -0.178 |
| CACAATCA | 0.284 |
| GGATACAC | 0.0108 |
| ACTGACTG | 0.306 |
| TAATACTA | 0.106 |
| AACGGACA | -0.158 |
| ACGGAGCC | -0.196 |
| AGGCGTAC | -0.101 |
| CCTAATGC | -0.108 |
| ATCTAAAA | 0.187 |
| CTGATAAC | -0.0031 |
| CGCACTCC | -0.217 |
| AATTTTTC | -0.194 |
| ACCCGAAT | -0.106 |
| AACAAGTT | -0.0663 |
| AGTGCAGA | -0.116 |
| AAAACCGC | -0.129 |
| AGTACAGC | 0.099 |
| ACTCCTCA | 0.127 |

| Sequence | PBM E-score |
| --- | --- |
| AGGTCGTA | 0.0488 |
| AAACTCCA | -0.104 |
| ATACAATC | 0.0424 |
| ACGACTAG | 0.359 |
| CGCCCGCC | -0.298 |
| ACGGGGCG | -0.00076 |
| CACGACGC | -0.163 |
| CATGGCGC | -0.154 |
| CGCATCCG | -0.0541 |
| ATCCATTA | -0.0339 |
| AGATTTGC | -0.0937 |
| AACGCATG | -0.0766 |
| ATACATCG | 0.0545 |
| ATCGCCAA | -0.198 |
| ACCATGCG | 0.0519 |
| GGGTCGCA | -0.111 |
| ATGTCCTC | -0.173 |
| CATTGGTA | -0.0834 |
| GCTCTTGA | 0.0196 |
| CGCCTATC | -0.0992 |
| CGTGTGGC | -0.144 |
| ACTACCAG | 0.0404 |
| AGTCATGG | 0.479 |
| CTCACACC | 0.0863 |
| AGAGAATG | -0.0113 |

| Sequence | PBM E-score |
| --- | --- |
| AATAAAGT | 0.0508 |
| GCTATGCC | -0.25 |
| CCCTGCTA | -0.233 |
| TCTATCAA | -0.0163 |
| TGATTACA | 0.41 |
| AGCTACTG | 0.0619 |
| TAACGCCA | -0.22 |
| ATGCCTAG | -0.105 |
| CAACCTCC | -0.123 |
| ATCAAGAA | 0.147 |
| AGTATCCA | -0.0187 |
| ACCCCTAT | -0.0553 |
| AAGATGAA | 0.0255 |
| CGACCTGC | -0.24 |
| GTCAACGA | 0.267 |
| CGATGTGC | 0.0961 |
| CAGTGTGA | 0.211 |
| GATGGCCA | -0.214 |
| ACTCCCAC | 0.02 |
| TGATACAA | 0.141 |
| GTGCGTTA | -0.142 |
| ACCATTCT | -0.0647 |
| GACAGGAA | -0.0294 |
| CACCCTGA | 0.171 |
| CTGCGCAA | 0.025 |

| Sequence | PBM E-score |
| --- | --- |
| CGATCCGA | -0.151 |
| CACCCTCC | 0.0286 |
| TAACTACA | 0.113 |
| CAAAACAC | -0.0046 |
| ACGTAGAG | 0.0083 |
| CTGTATGA | 0.146 |
| AACGAGCT | -0.0899 |
| AAACCTTC | -0.0157 |
| GATTGTTA | 0.218 |
| CCAGTAGC | -0.191 |
| CCTCAGCG | -0.182 |
| CCCGACTC | 0.389 |
| AGTGGAAG | -0.16 |
| ATGAACTG | 0.0739 |
| GGACTTCA | -0.00459 |
| CGTAGCAG | -0.0495 |
| ACTTGGCA | -0.0478 |
| GTTCTCAA | 0.131 |
| AGCCTATG | -0.0712 |
| GATGGACC | -0.215 |
| CGACGCAC | -0.114 |
| ACTTCGCG | 0.0575 |
| ACTACAAG | 0.224 |
| CTACAAGA | 0.0477 |
| CGTCTGTC | -0.138 |

| Sequence | PBM E-score |
| --- | --- |
| AATACTCG | 0.0739 |
| CGCGCACG | -0.0982 |
| GACATGAA | -0.0945 |
| CGCTTTCA | -0.0818 |
| CAGCTCCG | 0.0233 |
| CTCTAACC | -0.142 |
| CTTCTAAC | -0.0284 |
| TAAGCCTA | -0.0345 |
| AACTATAA | 0.0773 |
| CATGTAGC | -0.048 |
| TCTTTGCA | 0.08 |
| AAGCGTGC | -0.222 |
| GCATACGA | -0.159 |
| ATGACCCG | -0.0995 |
| CCGCAGAA | -0.147 |
| CGTTTTCC | -0.286 |
| CTCAGGTC | -0.0443 |
| CATGACCC | 0.0512 |
| CACTTGCC | -0.214 |
| GCCACCAC | -0.228 |
| CTCAACCC | 0.203 |
| ATTTATGG | 0.0947 |
